The supplement of paper PMC10037445
Whole data set: some 2,900 compounds, median “NF-kB SEAP reporter activity, fold change vs agonist alone” near 0.99, cut for the highest 2% near 2.6. This is one part of the list.

Tests used:
RAW-Dual [1] = assay: NF-kB SEAP reporter activity, fold change vs agonist alone; higher = enhanced NF-kB activity; conditions: library stock concentration (final ~1000-fold dilution): 10 mM
How it was run: (§1)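 After 50 nL of library stock was delivered by pin tool to RAW-Dual macrophages (50,000 cells/well, DMEM, 384-well plates), a PRR agonist was added 1 h later and the plates were kept at 37 °C, 5% CO2. Twenty hours later, IRF was read from supernatant by QuantiLuc luminescence and NF-κB by QuantiBlue absorbance at 620 nm. Reporter activity is stated as fold change over agonist-alone wells. Wells with IncuCyte confluency under 70% of agonist controls in both mask sets were counted as cytotoxic.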

RAW-Dual [2] = assay: NF-kB SEAP reporter activity, fold change vs agonist alone; cytotoxicity flag (confluency mask): not cytotoxic; higher = enhanced NF-kB activity
How it was run: as §1

RAW-Dual [3] = assay: NF-kB SEAP reporter activity, fold change vs agonist alone; cytotoxicity flag (confluency mask): cytotoxic (confluency <70% of control); higher = enhanced NF-kB activity
How it was run: as §1

[4] = cytotoxicity flag (confluency mask): not cytotoxic, agonist: Imiquimod (TLR7) […]
[5] = cytotoxicity flag (confluency mask): not cytotoxic, agonist: MPLA (TLR4) […]
[6] = agonist: ODN 1826 (TLR9) 0.5 ug/mL
[7] = agonist: Pam2CSK4 (TLR2/6) 0.1 ug/mL
[8] = agonist: Pam3CSK4 (TLR2/1) 0.1 ug/mL

## CCOC(=O)C(CCc1ccccc1)NC(C)C(=O)N1C(=O)N(C)CC1C(=O)O.Cl (configuration not stated)
RAW-Dual [1]; [4]
  NF-kB SEAP reporter activity: 0.962
RAW-Dual [1]; [5]
  NF-kB SEAP reporter activity: 0.927

## CCOC(=O)C(CCc1ccccc1)NC(C)C(=O)N1C(=O)N(C)CC1C(=O)O.Cl (configuration not stated) (library stock concentration (final ~1000-fold dilution): 10 mM)
RAW-Dual [2]; agonist: LPS (TLR4) 0.1 ug/mL
  NF-kB SEAP reporter activity: 1.2
RAW-Dual [2]; [6]
  NF-kB SEAP reporter activity: 0.98
RAW-Dual [2]; [7]
  NF-kB SEAP reporter activity: 0.83
RAW-Dual [2]; [8]
  NF-kB SEAP reporter activity: 1.03

## CC(C)NCC(O)COc1cccc2[nH]c3ccccc3c12 (configuration not stated)
RAW-Dual [1]; [4]
  NF-kB SEAP reporter activity: 0.895
RAW-Dual [1]; [5]
  NF-kB SEAP reporter activity: 0.982

## CC(C)NCC(O)COc1cccc2[nH]c3ccccc3c12 (configuration not stated) (library stock concentration (final ~1000-fold dilution): 10 mM)
RAW-Dual [2]; agonist: LPS (TLR4) 0.1 ug/mL
  NF-kB SEAP reporter activity: 1.12
RAW-Dual [2]; [6]
  NF-kB SEAP reporter activity: 0.921
RAW-Dual [2]; [7]
  NF-kB SEAP reporter activity: 0.951
RAW-Dual [2]; [8]
  NF-kB SEAP reporter activity: 1.02

## Cn1c(=O)cc(N2CCCC(N)C2)n(Cc2cc(F)ccc2C#N)c1=O (configuration not stated) (library stock concentration (final ~1000-fold dilution): 10 mM)
RAW-Dual [2]; agonist: LPS (TLR4) 0.1 ug/mL
  NF-kB SEAP reporter activity: 0.833
RAW-Dual [2]; [6]
  NF-kB SEAP reporter activity: 0.842
RAW-Dual [2]; [7]
  NF-kB SEAP reporter activity: 0.83
RAW-Dual [2]; [8]
  NF-kB SEAP reporter activity: 1.03

## Cn1c(=O)cc(N2CCCC(N)C2)n(Cc2cc(F)ccc2C#N)c1=O (configuration not stated)
RAW-Dual [1]; [4]
  NF-kB SEAP reporter activity: 0.999
RAW-Dual [1]; [5]
  NF-kB SEAP reporter activity: 0.869

## CC(=O)/C(C)=N/O (library stock concentration (final ~1000-fold dilution): 10 mM)
RAW-Dual [2]; agonist: LPS (TLR4) 0.1 ug/mL
  NF-kB SEAP reporter activity: 0.735
RAW-Dual [2]; [6]
  NF-kB SEAP reporter activity: 0.976
RAW-Dual [2]; [7]
  NF-kB SEAP reporter activity: 0.997
RAW-Dual [2]; [8]
  NF-kB SEAP reporter activity: 1.05

## CC(=O)/C(C)=N/O
RAW-Dual [1]; [4]
  NF-kB SEAP reporter activity: 0.917
RAW-Dual [1]; [5]
  NF-kB SEAP reporter activity: 1.03

## Cl.Cl.O=c1cc(CN2CCOCC2)occ1OCCCCCSc1ccnc2cc(C(F)(F)F)ccc12
RAW-Dual [1]; cytotoxicity flag (confluency mask): cytotoxic (confluency <70% of control), agonist: Imiquimod (TLR7) […]
  NF-kB SEAP reporter activity: 0.953
RAW-Dual [1]; cytotoxicity flag (confluency mask): cytotoxic (confluency <70% of control), agonist: MPLA (TLR4) […]
  NF-kB SEAP reporter activity: 0.895

## Cl.Cl.O=c1cc(CN2CCOCC2)occ1OCCCCCSc1ccnc2cc(C(F)(F)F)ccc12 (library stock concentration (final ~1000-fold dilution): 10 mM)
RAW-Dual [3]; agonist: LPS (TLR4) 0.1 ug/mL
  NF-kB SEAP reporter activity: 0.81
RAW-Dual [3]; [6]
  NF-kB SEAP reporter activity: 0.603
RAW-Dual [3]; [7]
  NF-kB SEAP reporter activity: 0.59
RAW-Dual [3]; [8]
  NF-kB SEAP reporter activity: 0.529

## Cc1cc(C)nc(SCC(=O)Nc2ncc(Cc3cccc4ccccc34)s2)n1
RAW-Dual [1]; [4]
  NF-kB SEAP reporter activity: 0.608
RAW-Dual [1]; [5]
  NF-kB SEAP reporter activity: 0.875

## Cc1cc(C)nc(SCC(=O)Nc2ncc(Cc3cccc4ccccc34)s2)n1 (library stock concentration (final ~1000-fold dilution): 10 mM)
RAW-Dual [2]; agonist: LPS (TLR4) 0.1 ug/mL
  NF-kB SEAP reporter activity: 0.929
RAW-Dual [2]; [6]
  NF-kB SEAP reporter activity: 0.579
RAW-Dual [2]; [7]
  NF-kB SEAP reporter activity: 0.859
RAW-Dual [2]; [8]
  NF-kB SEAP reporter activity: 0.829

## C#CCC(Cc1cnc2nc(N)nc(N)c2n1)c1ccc(C(=O)NC(CCC(=O)O)C(=O)O)cc1 (configuration not stated) (library stock concentration (final ~1000-fold dilution): 10 mM)
RAW-Dual [2]; agonist: LPS (TLR4) 0.1 ug/mL
  NF-kB SEAP reporter activity: 0.896
RAW-Dual [2]; [6]
  NF-kB SEAP reporter activity: 1.02
RAW-Dual [2]; [7]
  NF-kB SEAP reporter activity: 0.698
RAW-Dual [2]; [8]
  NF-kB SEAP reporter activity: 0.743

## C#CCC(Cc1cnc2nc(N)nc(N)c2n1)c1ccc(C(=O)NC(CCC(=O)O)C(=O)O)cc1 (configuration not stated)
RAW-Dual [1]; [4]
  NF-kB SEAP reporter activity: 0.83
RAW-Dual [1]; [5]
  NF-kB SEAP reporter activity: 0.846

## O=C(O)CCCCC1CCSS1 (configuration not stated)
RAW-Dual [1]; [4]
  NF-kB SEAP reporter activity: 1.2
RAW-Dual [1]; [5]
  NF-kB SEAP reporter activity: 1.39

## O=C(O)CCCCC1CCSS1 (configuration not stated) (library stock concentration (final ~1000-fold dilution): 10 mM)
RAW-Dual [2]; agonist: LPS (TLR4) 0.1 ug/mL
  NF-kB SEAP reporter activity: 0.812
RAW-Dual [2]; [6]
  NF-kB SEAP reporter activity: 0.944
RAW-Dual [2]; [7]
  NF-kB SEAP reporter activity: 0.625
RAW-Dual [2]; [8]
  NF-kB SEAP reporter activity: 0.795

## COc1cc2c(Oc3ccc4[nH]c(C)cc4c3F)ccnc2cc1OCC1(N)CC1.Cl.Cl (library stock concentration (final ~1000-fold dilution): 10 mM)
RAW-Dual [3]; agonist: LPS (TLR4) 0.1 ug/mL
  NF-kB SEAP reporter activity: 1.7
RAW-Dual [3]; [6]
  NF-kB SEAP reporter activity: 0.29
RAW-Dual [3]; [7]
  NF-kB SEAP reporter activity: 1.17
RAW-Dual [3]; [8]
  NF-kB SEAP reporter activity: 1.74
